# Measured values reported in the supplement of paper PMC8728848.
# The other results are listed elsewhere or left out.
# Experiments:
# Experiment in all cases: glycan array binding signal (z-score within array); higher = stronger binding
# Details in all cases: glycan notation: IUPAC condensed, linker removed
# [1] = molecular target: Gal(a1-3)Gal(b1-4)GlcNAc(b1-2)Man
# Outline: (§1)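 Columns mapping to the same glycan were averaged after glycan names were converted to IUPAC-condensed notation. The data come from 3228 arrays in the Consortium for Functional Glycomics database, limited to those with an available protein sequence. Binding is reported as a within-array Z-score averaged across arrays of one protein sequence and across linkers.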
# [2] = molecular target: Gal(a1-3)Gal(b1-4)GlcNAc(b1-2)Man(a1-3)[Gal(a1-3)Gal(b1-4)GlcNAc(b1-2)Man(a1-6)]Man(b1-4)GlcNAc(b1-4)GlcNAc
# Outline: as §1
# [3] = molecular target: Gal(a1-3)Gal(b1-4)GlcNAc(b1-3)GalNAc
# Outline: as §1
# [4] = molecular target: Gal(a1-3)Gal(b1-4)GlcNAc(b1-6)GalNAc
# Outline: as §1
# [5] = molecular target: Gal(a1-3)Gal(b1-4)[Fuc(a1-3)]GlcNAc
# Outline: as §1
# [6] = molecular target: Gal(a1-3)Gal(b1-4)[Fuc(a1-3)]GlcNAc(b1-2)Man(a1-3)[Gal(a1-3)Gal(b1-4)[Fuc(a1-3)]GlcNAc(b1-2)Man(a1-6)]Man(b1-4)GlcNAc(b1-4)GlcNAc
# Outline: as §1
# Gal(a1-3)GalNAc = molecular target: Gal(a1-3)GalNAc
# Outline: as §1
# [7] = molecular target: Gal(a1-3)[Gal(a1-4)]Gal(b1-4)GlcNAc
# Outline: as §1
# [8] = molecular target: Gal(a1-4)Gal(b1-3)GlcNAc(b1-2)Man(a1-3)[Gal(a1-4)Gal(b1-3)GlcNAc(b1-2)Man(a1-6)]Man(b1-4)GlcNAc(b1-4)GlcNAc
# Outline: as §1
# Gal(a1-4)Gal(b1-4)Glc = molecular target: Gal(a1-4)Gal(b1-4)Glc
# Outline: as §1
# Gal(a1-4)Gal(b1-4)GlcNAc = molecular target: Gal(a1-4)Gal(b1-4)GlcNAc
# Outline: as §1
# [9] = molecular target: Gal(a1-4)Gal(b1-4)GlcNAc(b1-2)Man(a1-3)[Gal(a1-4)Gal(b1-4)GlcNAc(b1-2)Man(a1-6)]Man(b1-4)GlcNAc(b1-4)GlcNAc
# Outline: as §1
# [10] = molecular target: Gal(a1-4)Gal(b1-4)GlcNAc(b1-3)Gal(b1-4)Glc
# Outline: as §1
# Gal(a1-4)GlcNAc = molecular target: Gal(a1-4)GlcNAc
# Outline: as §1
# Gal(a1-6)Glc = molecular target: Gal(a1-6)Glc
# Outline: as §1
# Gal(b1-2)Gal = molecular target: Gal(b1-2)Gal
# Outline: as §1
# Gal(b1-3)Gal = molecular target: Gal(b1-3)Gal
# Outline: as §1
# Gal(b1-3)Gal(b1-4)GlcNAc = molecular target: Gal(b1-3)Gal(b1-4)GlcNAc
# Outline: as §1
# Gal(b1-3)GalNAc = molecular target: Gal(b1-3)GalNAc
# Outline: as §1
# [11] = molecular target: Gal(b1-3)GalNAc(a1-3)[Fuc(a1-2)]Gal(b1-4)Glc
# Outline: as §1
# [12] = molecular target: Gal(b1-3)GalNAc(a1-3)[Fuc(a1-2)]Gal(b1-4)GlcNAc
# Outline: as §1
# Gal(b1-3)GalNAc(b1-3)Gal = molecular target: Gal(b1-3)GalNAc(b1-3)Gal
# Outline: as §1
# [13] = molecular target: Gal(b1-3)GalNAc(b1-3)Gal(a1-4)Gal(b1-4)Glc
# Outline: as §1
# [14] = molecular target: Gal(b1-3)GalNAc(b1-4)Gal(b1-4)Glc
# Outline: as §1
# [15] = molecular target: Gal(b1-3)GalNAc(b1-4)[Neu5Ac(a2-3)]Gal(b1-4)Glc
# Outline: as §1
# Gal(b1-3)GlcNAc = molecular target: Gal(b1-3)GlcNAc
# Outline: as §1
# [16] = molecular target: Gal(b1-3)GlcNAc(a1-3)Gal(b1-4)GlcNAc
# Outline: as §1
# [17] = molecular target: Gal(b1-3)GlcNAc(a1-6)Gal(b1-4)GlcNAc
# Outline: as §1
# Gal(b1-3)GlcNAc(b1-2)Man = molecular target: Gal(b1-3)GlcNAc(b1-2)Man
# Outline: as §1
# [18] = molecular target: Gal(b1-3)GlcNAc(b1-2)Man(a1-3)[Gal(b1-3)GlcNAc(b1-2)Man(a1-6)]Man(b1-4)GlcNAc(b1-4)GlcNAc
# Outline: as §1
# [19] = molecular target: Gal(b1-3)GlcNAc(b1-2)Man(a1-3)[Gal(b1-3)GlcNAc(b1-2)Man(a1-6)]Man(b1-4)GlcNAc(b1-4)[Fuc(a1-6)]GlcNAc
# Outline: as §1
# [20] = molecular target: Gal(b1-3)GlcNAc(b1-2)Man(a1-3)[GlcNAc(b1-4)][Gal(b1-3)GlcNAc(b1-2)Man(a1-6)]Man(b1-4)GlcNAc(b1-4)GlcNAc
# Outline: as §1
# [21] = molecular target: Gal(b1-3)GlcNAc(b1-2)[Gal(b1-3)GlcNAc(b1-6)]Man(a1-6)[Gal(b1-3)GlcNAc(b1-2)Man(a1-3)]Man(b1-4)GlcNAc(b1-4)GlcNAc
# Outline: as §1
# [22] = molecular target: Gal(b1-3)GlcNAc(b1-3)Gal(b1-3)GlcNAc
# Outline: as §1
# [23] = molecular target: Gal(b1-3)GlcNAc(b1-3)Gal(b1-4)Glc
# Outline: as §1
# [24] = molecular target: Gal(b1-3)GlcNAc(b1-3)Gal(b1-4)GlcNAc
# Outline: as §1
# [25] = molecular target: Gal(b1-3)GlcNAc(b1-3)Gal(b1-4)GlcNAc(b1-2)Man(a1-3)[Gal(b1-3)GlcNAc(b1-3)Gal(b1-4)GlcNAc(b1-2)Man(a1-6)]Man(b1-4)GlcNAc(b1-4)GlcNAc
# Outline: as §1
# [26] = molecular target: Gal(b1-3)GlcNAc(b1-3)Gal(b1-4)GlcNAc(b1-2)[Gal(b1-3)GlcNAc(b1-3)Gal(b1-4)GlcNAc(b1-6)]Man(a1-6)[Gal(b1-3)GlcNAc(b1-3)Gal(b1-4)GlcNAc(b1-2)Man(a1-3)]Man(b1-4)GlcNAc(b1-4)[Fuc(a1-6)]GlcNAc
# Outline: as §1
# [27] = molecular target: Gal(b1-3)GlcNAc(b1-3)Gal(b1-4)GlcNAc(b1-3)Gal(b1-4)GlcNAc(b1-2)[Gal(b1-3)GlcNAc(b1-3)Gal(b1-4)GlcNAc(b1-3)Gal(b1-4)GlcNAc(b1-6)]Man(a1-6)[Gal(b1-3)GlcNAc(b1-3)Gal(b1-4)GlcNAc(b1-3)Gal(b1-4)GlcNAc(b1-2)Man(a1-3)]Man(b1-4)GlcNAc(b1-4)[Fuc(a1-6)]GlcNAc
# Outline: as §1
# [28] = molecular target: Gal(b1-3)GlcNAc(b1-3)Gal(b1-4)GlcNAc(b1-6)[Gal(b1-3)GlcNAc(b1-3)]Gal(b1-4)Glc
# Outline: as §1
# [29] = molecular target: Gal(b1-3)GlcNAc(b1-3)Gal(b1-4)[Fuc(a1-3)]GlcNAc(b1-6)[Gal(b1-3)GlcNAc(b1-3)]Gal(b1-4)Glc
# Outline: as §1
# [30] = molecular target: Gal(b1-3)GlcNAc(b1-3)GalNAc
# Outline: as §1
# [31] = molecular target: Gal(b1-3)GlcNAc(b1-6)Gal(b1-4)GlcNAc
# Outline: as §1
# [32] = molecular target: Gal(b1-3)GlcNAc(b1-6)GalNAc
# Outline: as §1
# [33] = molecular target: Gal(b1-3)GlcNAc(b1-6)[Gal(b1-3)]GalNAc
# Outline: as §1
binder,measurement,setting,value
"CBM13 2a (Mycobacterium tuberculosum), P64849 (protein) DGPVQLKSRLGDVCLDAPSGSWFSPLVINPCNGTDFQRWNLTDDRQVESVAFPGECVNIGNALWARLQPCVNWISQHWTVQPDGLVKSDLDACLTVLGGPDPGTWVSTRWCDPNAPDQQWDSVPLEHHHHHH",glycan array binding signal (z-score),[1],-0.299
same,glycan array binding signal (z-score),[2],-0.178
same,glycan array binding signal (z-score),[3],-0.373
same,glycan array binding signal (z-score),[4],-0.186
same,glycan array binding signal (z-score),[5],-0.264
same,glycan array binding signal (z-score),[6],-0.199
same,glycan array binding signal (z-score),Gal(a1-3)GalNAc,0.087
same,glycan array binding signal (z-score),[7],-0.207
same,glycan array binding signal (z-score),[8],-0.14
same,glycan array binding signal (z-score),Gal(a1-4)Gal(b1-4)Glc,-0.146
same,glycan array binding signal (z-score),Gal(a1-4)Gal(b1-4)GlcNAc,-0.323
same,glycan array binding signal (z-score),[9],-0.29
same,glycan array binding signal (z-score),[10],-0.267
same,glycan array binding signal (z-score),Gal(a1-4)GlcNAc,-0.266
same,glycan array binding signal (z-score),Gal(a1-6)Glc,-0.063
same,glycan array binding signal (z-score),Gal(b1-2)Gal,-0.217
same,glycan array binding signal (z-score),Gal(b1-3)Gal,-0.285
same,glycan array binding signal (z-score),Gal(b1-3)Gal(b1-4)GlcNAc,-0.121
same,glycan array binding signal (z-score),Gal(b1-3)GalNAc,-0.17
same,glycan array binding signal (z-score),[11],-0.4
same,glycan array binding signal (z-score),[12],-0.225
same,glycan array binding signal (z-score),Gal(b1-3)GalNAc(b1-3)Gal,-0.341
same,glycan array binding signal (z-score),[13],-0.225
same,glycan array binding signal (z-score),[14],-0.32
same,glycan array binding signal (z-score),[15],-0.205
same,glycan array binding signal (z-score),Gal(b1-3)GlcNAc,-0.26
same,glycan array binding signal (z-score),[16],-0.084
same,glycan array binding signal (z-score),[17],-0.362
same,glycan array binding signal (z-score),Gal(b1-3)GlcNAc(b1-2)Man,-0.214
same,glycan array binding signal (z-score),[18],-0.2
same,glycan array binding signal (z-score),[19],-0.131
same,glycan array binding signal (z-score),[20],-0.203
same,glycan array binding signal (z-score),[21],-0.242
same,glycan array binding signal (z-score),[22],-0.241
same,glycan array binding signal (z-score),[23],-0.321
same,glycan array binding signal (z-score),[24],-0.288
same,glycan array binding signal (z-score),[25],-0.195
same,glycan array binding signal (z-score),[26],-0.012
same,glycan array binding signal (z-score),[27],-0.046
same,glycan array binding signal (z-score),[28],-0.263
same,glycan array binding signal (z-score),[29],-0.165
same,glycan array binding signal (z-score),[30],-0.15
same,glycan array binding signal (z-score),[31],-0.345
same,glycan array binding signal (z-score),[32],-0.098
same,glycan array binding signal (z-score),[33],-0.021
